Reference: paper PMC12136788
Some of the results follow.

T1: UNK ZnF1-3 (human, UniProt Q9C0B0 31-174)
T1 sequence: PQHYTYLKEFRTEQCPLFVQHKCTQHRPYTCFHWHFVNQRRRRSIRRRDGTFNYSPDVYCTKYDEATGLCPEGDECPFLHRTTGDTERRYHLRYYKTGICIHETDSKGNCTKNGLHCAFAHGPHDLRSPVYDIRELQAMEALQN

B1: 102151997_102154889_5144_CDS_ENSMUSG00000021182_ENSMUST00000068411|mouse|control|control (ssRNA)
RNA: GGGAGUUCUACAGUCCGACGAUCACGGCAGCUGGGAGUAUCAUGGGUAGGAGAGCCUCCUCGGUUACUCUCCUCUAAAAAUUCCUCCAAGGUGACCAUCUCACUGCUGGGAGAGGCUGAGUGGGGUCGCACUCCCGUGUGGGUCAACAGAGGAUUGAGCAUCA
B2: chr17:56739783:56739784:+_ENSMUSG00000071054_ENSMUST00000095224|mus_mus|motif|central (ssRNA)
RNA: GGGAGUUCUACAGUCCGACGAUCAUAUCUGCUAAACAGGUUCUUCAGAUCCGUGGCUCUGGUUGUAGACGAAAGGCCACGGACCCAGAAAUUCCUACCACAGCUGCUGCGACCCUUCUCUUCUCGGGAAAGCCUUUUUGUAUCCAACAGAGGAUUGAGCAUCA
B3: chr2:39278355:39278356:-_ENSG00000115904_ENST00000402219|hu_hu|motif|central (ssRNA)
RNA: GGGAGUUCUACAGUCCGACGAUCGCAGCUUCCUACUAGUGGAUGGGGACUGCCUUCAUCUGUCAUUUCUACUGUAUCUUCGGUAUGGCCCAGUAACUUUACACUAAGUUCAUGUAUAUCUACUAUGCGACUAAAUAUAUUUUCCAACAGAGGAUUGAGCAUCA
B4: chr10:73576327:73576328:-_ENSG00000197746_ENST00000394936|hu_hu|motif|central (ssRNA)
RNA: GGGAGUUCUACAGUCCGACGAUCGCCAGAGGCCUAGGAGCUCGCCAUCCAUAUUUAUUUGAAAAGGUCAAAAGGAGCAUCGGUGAGACAAGGGAGGGGUGCAGGCUGAAGCAGCGCCUCAACAGCCAGGGACAUGUAGGCAACCAACAGAGGAUUGAGCAUCA
B5: chr11:86503612:86503613:+_ENSMUSG00000072582_ENSMUST00000108022|mus_mus|FALSE|FALSE (ssRNA)
RNA: GGGAGUUCUACAGUCCGACGAUCUUACUGACAGGCUCCAUAGUCUUCGGACAGAAUCUCCAUCAAGCAAAAGCUUAUCUAGUAAAGUUUUAGGUGGCCAGUAACUUCAUCAAUUAGUUCUACUGGUCCUGGCCCAAUUCCCAGCAACAGAGGAUUGAGCAUCA
B6: chr9:31209820:31209821:+_ENSMUSG00000042185_ENSMUST00000086167|mus_hu|FALSE|FALSE (ssRNA)
RNA: GGGAGUUCUACAGUCCGACGAUCUUCUUGCUUACAGAAGGCCUGAUCUUUGGUCUCUAGCCAUAGCUGGAAGAGGGCAGCUAAUUCCUUUUCAUUAUCUUGGGAUUGGCCAAGCAACUUCCACUGCUGGGUUUUCUCUUUGAACAACAGAGGAUUGAGCAUCA
B7: chr2:179515052:179515053:+_ENSMUSG00000000305_ENSMUST00000000314|mus_hu|mus_mus_mus_hu_False|28_88 (ssRNA)
RNA: GGGAGUUCUACAGUCCGACGAUCGCUGUCCCAUGCAGUCACCGUGAAGGCCACCUGCUCGGAGGGGACCUGCAGCUCCCGGGUGGCGAAGACUGUCCCAUCUGCCCCGACUUUGAAGUCCAUGCUGUUGGUCUCAUAUUGUGUCAACAGAGGAUUGAGCAUCA
B8: chr1:230810825:230810826:+_ENSG00000135775_ENST00000366669|hu_mus|motif|central (ssRNA)
RNA: GGGAGUUCUACAGUCCGACGAUCUUUCUGGUGAAAGGCGUCUGGGUCCCCAGGGUUGAAGAGCGAGGGUAGCUUUUCCUCGGGGCCUCGAACUAUUUCUGGCCACACAGAAUUCACCAAGAAAUCAUAGCCAGGAACGAUAGUCAACAGAGGAUUGAGCAUCA
B9: chr3:148802587:148802588:-_ENSG00000071794_ENST00000310053|hu_mus|hu_hu_hu_mus_False|38_58 (ssRNA)
RNA: GGGAGUUCUACAGUCCGACGAUCUCCAACAACUUGUCCUCUCAUAGUUCCAAAUAAAACCAAAUCUUGCUCUUCAUCACUAGUUAGGAAGUCAUCUGGAGGGAUAAUGUCUUGGAAUUCAAAAUGUGGCAAGAAAGUUGAGUACAACAGAGGAUUGAGCAUCA
B10: chr6:114281168:114281169:-_ENSG00000196591_ENST00000368632|hu_hu|hu_hu_hu_mus_True|8_8 (ssRNA)
RNA: GGGAGUUCUACAGUCCGACGAUCUUCCAUUUUUCGGUAUAAACCAUAAUUUAGCAGCAAGUUAUGAGUCAUCCGGAUUCUAUGAGGCUUCAUGGGAUGACCCUGGCCAUAAUAAUAAUUGCCAAUAUCACAGAUUCAGUAGUACAACAGAGGAUUGAGCAUCA
B11: chr9:91930108:91930109:+_ENSG00000123975_ENST00000314355|hu_mus|FALSE|FALSE (ssRNA)
RNA: GGGAGUUCUACAGUCCGACGAUCACCAAGUCUCCUCCACUCCUCUUCGGACAUCAGAUGAGUUUUGGGUACUUGUUUAGAGAGUUCUCUGGGUAACAUGACAUGCCGGUACUCGUAGUGCUCAUCGAAGUACUUGUCUGAGUACAACAGAGGAUUGAGCAUCA
B12: chr7:138189096:138189097:+_ENSG00000122779_ENST00000415680|hu_hu|motif|central (ssRNA)
RNA: GGGAGUUCUACAGUCCGACGAUCUGACUUUUCUACUGUACUGCUGGGAACCUCAGUAGUGUCCUUCACAAAAAAGUUAUCGGUGAUGUGUCUCUCUGCACAUUCUUGGCUGCAAACUGGGCAACGAAUGACUCCAACUUGGGUCAACAGAGGAUUGAGCAUCA
B13: chr11:54683702:54683703:+_ENSMUSG00000020267_ENSMUST00000020504|mus_mus|motif|central (ssRNA)
RNA: GGGAGUUCUACAGUCCGACGAUCACAUUUCUUGCCAACAAUCAUUAAAUGUCCUAGAAGACUUUCAUCAUCAUCAUCUGCGGCAGAAAUCUGGGAUAUAUGCUUCUUGGGUAUCACCAGAAAGUGUGUUGGUGCUUGAGGGGACAACAGAGGAUUGAGCAUCA
B14: chr4:76721835:76721836:+_ENSG00000138768_ENST00000264904|hu_mus|hu_hu_hu_mus_True|38_98 (ssRNA)
RNA: GGGAGUUCUACAGUCCGACGAUCGUUUGGCUGGGGUUCUGAGAUGCCUCUGGAAUAUAACUCAUGUUUGCUAAUAAAUCCUAGUUUCUCUAUGAAAUCUCUUUGCCCAAUCCUCUUCUCUAUUAGUUGCUUUAGUUUCUCUUUCAACAGAGGAUUGAGCAUCA
B15: chr10:1042047:1042048:+_ENSG00000107937_ENST00000545048|hu_hu|FALSE|FALSE (ssRNA)
RNA: GGGAGUUCUACAGUCCGACGAUCGUAGAGAGAGUCGCCAUACUUCAUCAGUCGCACAUAAUCUUUAGCAACAUUGUCCACUAAAUUUUUGGCAAUAUUUAUUUGCCCCAGAGCCAACUUGUAAUGAUCCUUGUCGUAGAGAAUCAACAGAGGAUUGAGCAUCA
B16: chr9:95013113:95013114:-_ENSG00000196305_ENST00000443024|hu_hu|hu_hu_hu_mus_False|18_58 (ssRNA)
RNA: GGGAGUUCUACAGUCCGACGAUCCUCAGUCAGAAAGGGCGUGUAAGGGGCCAUCAGUCUGCACAGAGAAAGCAGGACACUAAACAAUGUCUCCAGAGCCAUGACACAGUCUUCCACCCCAUUUUCACCCUUUAACCUCCUCCUCAACAGAGGAUUGAGCAUCA
B17: chr18:52893488:52893489:-_ENSG00000196628_ENST00000354452|hu_hu|hu_hu_hu_mus_True|1_18 (ssRNA)
RNA: GGGAGUUCUACAGUCCGACGAUCUAUUUAGACCAUUUCCGCGGAGUUAUGGCAUUUACUCAGUGCUGAUAGGUGGAAAAACUACUUCAACAGGGAUUUUUUUUUUCCUUAAUACAUGCCAAGAAUUUGUGGCUGUCAAAAAUACAACAGAGGAUUGAGCAUCA
B18: chr2:216981417:216981418:+_ENSG00000079246_ENST00000392132|hu_hu|hu_hu_hu_mus_True|18_88 (ssRNA)
RNA: GGGAGUUCUACAGUCCGACGAUCCUGAUACUGGUCCUUGCCAGCAAGGGGAUUGUCAGUGCCAUCUGUGCCAUAGAGGACUAACGCAAUCUCAUCUUUGCUCUCCGAAAAUACCUGUCGCUGUACAAACAUAGUCAUCACUUUCAACAGAGGAUUGAGCAUCA
B19: chr11:105132459:105132460:+_ENSMUSG00000020694_ENSMUST00000015107|mus_hu|FALSE|FALSE (ssRNA)
RNA: GGGAGUUCUACAGUCCGACGAUCGAUCUUCGAAAGACCAAAAUCUGUAAUUUUUAUCUCUCCACACGCUGUACCAUUUACUAAAAGAAUAUUACCUGGUUUGAGGUCAUAGUGUAUGAUGGGAGGUUUUAUUUCAUUUAAGUACAACAGAGGAUUGAGCAUCA
B20: 75306597_75306959_2307_CDS_ENSMUSG00000020850_ENSMUST00000018449|mouse|control|control (ssRNA)
RNA: GGGAGUUCUACAGUCCGACGAUCCAUCAUGUCCAGAAUGUCGUGCAUCACAGCAGCCCUGAGCUCCAGGUCAAAGUGCGACUCCACCCGCUGCUUCGUUACUGUCUUUGCCACCCCCUUUGAGUGACGGCCUUCAAACUGUCGCAACAGAGGAUUGAGCAUCA
B21: chr6:40197388:40197389:+_ENSMUSG00000057716_ENSMUST00000061740|mus_mus|mus_mus_mus_hu_False|28_98 (ssRNA)
RNA: GGGAGUUCUACAGUCCGACGAUCGAGACACUGGGGUGGAUGGCACCCACCUCUGUUUGGGUGCUAGCCACUAAGACUGUUAUUUUGGGAUUCAUGGCCUUGAAUAUCAAGAGGAAAAGGAAGAGGAUGGAAAGAGUCAAGAGUCAACAGAGGAUUGAGCAUCA
B22: 28422993_28423113_5004_3pUTR_ENSG00000104290_ENST00000240093|human|control|control (ssRNA)
RNA: GGGAGUUCUACAGUCCGACGAUCCAUAGUGAUGUUCACUUAACUGUCUAUACUUGGCCCACUUGUAAAAGAAAACCAAUUAACAUUUUGGCAGUUGAUAAUAUAAUGCAGAUGGCAAUGGAUGACAACAUCUUCGAGCCCAAACAACAGAGGAUUGAGCAUCA

These binders were tested against T1, UNK ZnF1-3 (assay: nsRBNS (natural sequence RNA bind-n-seq); RBNS binding buffer (assumed for nsRBNS): 25 mM Tris pH 7.5, 150 mM KCl, 3 mM MgCl2, 0.01% Triton X-100, 500 ug/ml BSA, 20 U/ml SUPERase-In, 4 C; UNK is unkempt and MSI1 is Musashi-1; names of the RNAs are library labels; protein concentration not given here; high values mean tight binding).
With B1 the binding signal was 0.891 enrichment R.
B2 was tested, and the binding signal was 0.711 enrichment R.
Work on B3 yielded a binding signal of 0.543 enrichment R.
B4 was tested, and the binding signal was 2.45 enrichment R.
With B5 the binding signal was 1.52 enrichment R.
With B6 the binding signal was 0.541 enrichment R.
B7 gave a binding signal of 0.878 enrichment R.
B8 was tested, and the binding signal was 0.646 enrichment R.
With B9 the binding signal was 1.24 enrichment R.
B10 was tested, and the binding signal was 0.891 enrichment R.
B11 gave a binding signal of 0.306 enrichment R.
Work on B12 yielded a binding signal of 0.771 enrichment R.
B13 was tested, and the binding signal was 1.46 enrichment R.
B14 showed a binding signal of 0.455 enrichment R.
Binder B15 has a binding signal of 1.34 enrichment R.
B16 showed a binding signal of 1.42 enrichment R.
With B17 the binding signal was 1.04 enrichment R.
With B18 the binding signal was 1.37 enrichment R.
Work on B19 yielded a binding signal of 1.09 enrichment R.
In the case of B20, the binding signal is reported as 1.16 enrichment R.
Binder B21 has a binding signal of 1.44 enrichment R.
Binder B22 has a binding signal of 1.45 enrichment R.
